From PMC5612949
These are yes or no findings as the source states them, for the method shown. For part of these data: In cells and extracts the contact can be indirect. Some binding calls cover weakened binding; strength is not graded here. For part of these data: Where a sequence is shown, tags or fusion partners need not be part of it.

Protein sequences, listed by entry. Tags and fused reporters are not part of them.
UniProt Q9UKL0: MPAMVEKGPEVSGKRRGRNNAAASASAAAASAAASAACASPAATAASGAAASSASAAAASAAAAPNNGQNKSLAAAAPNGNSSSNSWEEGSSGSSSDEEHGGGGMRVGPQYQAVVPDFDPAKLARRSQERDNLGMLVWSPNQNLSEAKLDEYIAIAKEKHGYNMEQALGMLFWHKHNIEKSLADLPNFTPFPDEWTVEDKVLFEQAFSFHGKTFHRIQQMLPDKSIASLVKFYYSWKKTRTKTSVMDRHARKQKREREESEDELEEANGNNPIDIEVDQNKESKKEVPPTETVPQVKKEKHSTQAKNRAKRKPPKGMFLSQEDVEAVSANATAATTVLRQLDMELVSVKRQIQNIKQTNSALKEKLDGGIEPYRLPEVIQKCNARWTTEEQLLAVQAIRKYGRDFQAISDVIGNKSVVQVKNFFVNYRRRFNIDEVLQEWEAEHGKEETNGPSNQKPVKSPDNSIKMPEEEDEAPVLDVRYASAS

Columns and labels:
[1] = target: T1, ZNF516, endogenous (human (endogenous in MCF-7 and MDA-MB-231)) (UniProt Q92618); assay: co-IP; endogenous proteins, whole-cell lysates of MCF-7 or MDA-MB-231, immunoprecipitation with antibodies against ZNF516 or against the complex components (IgG as control), immunoblotting; lysis buffer 50 mM Tris-HCl pH 7.5, 150 mM NaCl, 0.5% NP-40, 2 mM EDTA, 4 °C
T1 sequence: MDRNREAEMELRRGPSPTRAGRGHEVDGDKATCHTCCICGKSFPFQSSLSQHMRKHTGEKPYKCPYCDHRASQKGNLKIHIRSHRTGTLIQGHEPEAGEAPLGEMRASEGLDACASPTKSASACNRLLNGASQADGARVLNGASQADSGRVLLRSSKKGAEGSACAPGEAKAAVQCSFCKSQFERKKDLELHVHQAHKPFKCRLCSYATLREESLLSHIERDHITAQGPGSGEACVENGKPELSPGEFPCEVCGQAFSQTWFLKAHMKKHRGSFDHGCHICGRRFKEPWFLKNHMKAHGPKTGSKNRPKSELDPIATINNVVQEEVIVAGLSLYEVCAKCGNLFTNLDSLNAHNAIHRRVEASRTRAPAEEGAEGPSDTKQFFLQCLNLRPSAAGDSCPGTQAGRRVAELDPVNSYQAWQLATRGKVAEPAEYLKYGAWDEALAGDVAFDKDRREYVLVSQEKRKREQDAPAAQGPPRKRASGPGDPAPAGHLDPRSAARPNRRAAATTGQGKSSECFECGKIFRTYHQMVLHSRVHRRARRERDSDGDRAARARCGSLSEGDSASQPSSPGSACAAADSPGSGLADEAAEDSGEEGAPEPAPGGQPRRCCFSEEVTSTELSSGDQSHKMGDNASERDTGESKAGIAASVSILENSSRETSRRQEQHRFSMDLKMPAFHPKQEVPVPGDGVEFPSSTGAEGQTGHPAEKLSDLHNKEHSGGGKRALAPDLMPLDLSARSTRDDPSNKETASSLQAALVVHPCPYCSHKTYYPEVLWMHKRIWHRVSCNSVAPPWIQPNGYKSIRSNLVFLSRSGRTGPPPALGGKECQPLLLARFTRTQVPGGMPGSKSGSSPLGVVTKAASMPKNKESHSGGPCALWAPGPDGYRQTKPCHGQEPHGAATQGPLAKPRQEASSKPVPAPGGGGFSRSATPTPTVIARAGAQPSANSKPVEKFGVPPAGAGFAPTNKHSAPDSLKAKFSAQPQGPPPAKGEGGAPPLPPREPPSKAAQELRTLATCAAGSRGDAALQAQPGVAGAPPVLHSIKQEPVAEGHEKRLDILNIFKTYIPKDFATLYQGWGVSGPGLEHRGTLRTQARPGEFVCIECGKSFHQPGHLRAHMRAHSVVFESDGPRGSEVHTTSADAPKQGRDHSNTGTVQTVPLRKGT

[2] = target: T2, FLAG-tagged ZNF516 (Zinc-finger protein 516) (human) (UniProt Q92618); assay: co-IP; whole-cell lysates of HEK293T transfected with FLAG-ZNF516, immunoprecipitation with anti-FLAG, immunoblotting for endogenous partners; lysis buffer 50 mM Tris-HCl pH 7.5, 150 mM NaCl, 0.5% NP-40, 2 mM EDTA, 4 °C
T2 sequence: T1 sequence

[3] = target: T2, FLAG-tagged ZNF516 (Zinc-finger protein 516) (human); assay: SEC; anti-FLAG affinity eluate from HEK293T stably expressing FLAG-ZNF516, concentrated and run on Superose 6 in PBS, fractions analysed by silver staining and western blot

Measured: binding

CoREST (corepressor of RE1 silencing transcription factor), endogenous (from UniProt Q9UKL0 1-485)
binds: all assays above

CtBP2 (C-terminal binding protein 2), endogenous (from UniProt P56545 1-445)
binds: all assays above
